{"source": "the supplement of paper PMC9446081", "note": "Among all 39,000 compounds or so, about 220 (0.56%) showed activity. Some of the results follow.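 Also: static incubation at 37 °C against the wild-type strain, values averaged over two biological replicates.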"}
{"test_system": "Escherichia coli K-12 BW25113", "assay": "relative growth (OD600 normalised to plate interquartile mean) (fraction); higher = less growth inhibition, active = 0.2 or less", "details": "50 µM; LB; incubation time: overnight (16-24 h)"}
{"smiles": "C[C@H](CO)N1C[C@H](C)[C@H](CN(C)C(=O)Cc2ccccc2)OCCCC[C@H](C)Oc2ccc(NC(=O)Nc3ccc(C(F)(F)F)cc3)cc2C1=O", "relative growth": "inactive: 0.993"}
{"smiles": "C[C@@H]1CN([C@H](C)CO)C(=O)Cc2cc(NC(=O)Nc3ccc4c(c3)OCO4)ccc2O[C@H]1CN(C)Cc1ccc(Cl)c(Cl)c1", "relative growth": "inactive: 1.03"}
{"smiles": "O=C(Nc1ccc(Cl)cc1C(=O)c1ccc(Cl)cc1)c1cc(Br)ccc1NS(=O)(=O)c1ccc(Cl)cc1", "relative growth": "inactive: 1"}
{"smiles": "COc1ccc(S(=O)(=O)Nc2ccc3c(c2)CC(=O)N([C@H](C)CO)C[C@H](C)[C@H](CN(C)S(C)(=O)=O)O3)cc1", "relative growth": "inactive: 0.979"}
{"smiles": "O=C(Cn1cnnn1)NC1C(=O)N2C(C(=O)O)=C(CSc3nncs3)CSC12", "note": "(stereo not given)", "relative growth": "active: 0.0457"}
{"smiles": "C[C@H]1CN([C@@H](C)CO)C(=O)Cc2cc(NC(=O)Nc3ccc(C(F)(F)F)cc3)ccc2O[C@H]1CN(C)S(C)(=O)=O", "relative growth": "inactive: 0.976"}
{"smiles": "C[C@@H]1CN([C@@H](C)CO)C(=O)Cc2cc(NC(=O)CCN3CCOCC3)ccc2O[C@H]1CN(C)S(=O)(=O)c1cccs1", "relative growth": "inactive: 1.05"}
{"smiles": "COc1ccc(CN(C)C[C@@H]2Oc3ccc(NC(=O)Cn4cnnn4)cc3CC(=O)N([C@H](C)CO)C[C@H]2C)cc1", "relative growth": "inactive: 0.981"}
{"smiles": "C[C@@H]1CN([C@@H](C)CO)C(=O)c2cc(NC(=O)NC3CCCCC3)ccc2O[C@@H](C)CCCCO[C@@H]1CN(C)C(=O)c1ccccc1", "relative growth": "inactive: 1.02"}
{"smiles": "COCCCNC(=O)[C@@]1(Cc2ccccc2I)c2ccccc2C(=O)N(C2CCCCC2)[C@H]1c1ccc(CO)cc1", "relative growth": "inactive: 1.02"}
{"smiles": "COCCOC(=O)N1C(=O)[C@@]2(c3ccccc31)[C@H](C(=O)Nc1nc3ccccc3s1)[C@H]1C(=O)O[C@H](c3ccccc3)[C@H](c3ccccc3)N1[C@@H]2c1ccccc1OCCO", "relative growth": "inactive: 1.03"}
{"smiles": "COC(=O)[C@@]12CCC(C)(C)C[C@@H]1[C@@H]1C(=O)C=C3[C@]4(C)C=C(C#N)C(=O)C(C)(C)[C@H]4CC[C@]3(C)[C@@]1(C)CC2", "relative growth": "inactive: 0.981"}
{"smiles": "COc1ccc(NC(=O)Nc2ccc3c(c2)C(=O)N([C@@H](C)CO)C[C@H](C)[C@@H](CN(C)S(=O)(=O)c2ccc(C)cc2)OCCCC[C@@H](C)O3)cc1", "relative growth": "inactive: 1.02"}
{"smiles": "C[C@@H]1CCCCO[C@@H](CN(C)C(=O)Nc2ccc(F)cc2)[C@H](C)CN([C@@H](C)CO)C(=O)c2cc(NC(=O)c3ccccc3)ccc2O1", "relative growth": "inactive: 1.01"}
{"smiles": "Cc1noc(C)c1NC(=O)Nc1ccc2c(c1)C(=O)N([C@@H](C)CO)C[C@H](C)[C@H](CN(C)S(=O)(=O)c1cn(C)cn1)O2", "relative growth": "inactive: 0.996"}
{"smiles": "C[C@@H]1CN([C@H](C)CO)C(=O)c2cc(NS(=O)(=O)c3ccc(Cl)cc3)ccc2O[C@@H](C)CCCCO[C@@H]1CN(C)S(=O)(=O)c1ccc(F)cc1", "relative growth": "inactive: 1.02"}
{"smiles": "CC(C)NC(=O)Nc1ccc2c(c1)C(=O)N([C@H](C)CO)C[C@@H](C)[C@H](CN(C)S(=O)(=O)c1cn(C)cn1)OCCCC[C@H](C)O2", "relative growth": "inactive: 0.962"}
{"smiles": "C/C=C1\\[C@H](O[C@@H]2O[C@H](CO)[C@@H](O)[C@H](O)[C@H]2O)OC=C(C(=O)OC)[C@H]1CC(=O)OC[C@H]1O[C@@H](OCCc2ccc(O)cc2)[C@H](O)[C@@H](O)[C@@H]1OC(=O)C[C@@H]1C(C(=O)OC)=CO[C@@H](O[C@@H]2O[C@H](CO)[C@@H](O)[C@H](O)[C@H]2O)/C1=C\\C", "relative growth": "inactive: 1.03"}
{"smiles": "CNC[C@@H]1OCCCC[C@H](C)Oc2ccc(NC(=O)Nc3cccc4ccccc34)cc2C(=O)N([C@@H](C)CO)C[C@@H]1C", "relative growth": "inactive: 0.995"}
{"smiles": "C[C@@H]1CN([C@H](C)CO)S(=O)(=O)c2ccc(C3=CCCC3)cc2O[C@H]1CN(C)S(=O)(=O)c1ccc(F)cc1", "relative growth": "inactive: 1.04"}
{"smiles": "O=C(C[C@H]1CC[C@@H]2[C@H](COC[C@H](O)CN2S(=O)(=O)c2ccccc2)O1)NCc1ccc(-c2ccccc2)cc1", "relative growth": "inactive: 0.994"}
{"smiles": "CC(C)NC(=O)N(C)C[C@H]1Oc2ccc(NC(=O)C3CCCCC3)cc2C(=O)N([C@@H](C)CO)C[C@H]1C", "relative growth": "inactive: 0.982"}
{"smiles": "COc1ccc([C@H]([C@@H](O)Cc2ccccc2)N(C[C@H](/C=C/c2ccccc2)CC(=O)N(C)C)[C@@H](Cc2ccccc2)C(OC)OC)cc1", "relative growth": "inactive: 0.898"}
{"smiles": "C[C@@H](O)C#Cc1cnc2c(c1)C(=O)N([C@@H](C)CO)C[C@H](C)[C@H](CN(C)C(=O)CN1CCOCC1)O2", "relative growth": "inactive: 1"}
{"smiles": "C[C@@H]1CN([C@@H](C)CO)C(=O)c2cc(NC(=O)Cn3cnnn3)ccc2O[C@@H]1CN(C)Cc1ccc(Oc2ccccc2)cc1", "relative growth": "inactive: 0.996"}
{"smiles": "C[C@H]1CC(=O)Nc2c1c(N)nn2C", "relative growth": "inactive: 1.02"}
{"smiles": "O=C(C[C@H]1C=C[C@H](NC(=O)Nc2ccc3c(c2)OCO3)[C@H](CO)O1)NCCCN1CCOCC1", "relative growth": "inactive: 0.987"}
{"smiles": "C[C@@H]1CCCCO[C@H](CN(C)C(=O)Cc2ccccc2)[C@@H](C)CN([C@@H](C)CO)C(=O)c2cc(NC(=O)NC3CCCCC3)ccc2O1", "relative growth": "inactive: 1.03"}
{"smiles": "NCc1ccc(-c2ncccn2)cc1", "relative growth": "inactive: 0.989"}
{"smiles": "C[C@@H]1CN([C@H](C)CO)C(=O)c2cc(NS(=O)(=O)c3ccc(F)cc3)ccc2O[C@@H](C)CCCCO[C@H]1CN(C)C(=O)Nc1ccc(F)cc1", "relative growth": "inactive: 1.02"}
{"smiles": "COc1ccc2c3c([nH]c2c1)[C@H](CO)N(C[C@]13CCN(CC1)CC1CCCC1)S(=O)(=O)c1cn(cn1)C", "relative growth": "inactive: 0.985"}
{"smiles": "CC(C)NC(=O)Nc1ccc2c(c1)C(=O)N([C@H](C)CO)C[C@@H](C)[C@@H](CN(C)Cc1ccc(Oc3ccccc3)cc1)O2", "relative growth": "inactive: 0.946"}
{"smiles": "Cc1noc(C)c1S(=O)(=O)N(C)C[C@H]1Oc2ccc(NC(=O)CCN3CCOCC3)cc2C(=O)N([C@@H](C)CO)C[C@H]1C", "relative growth": "inactive: 1"}
{"smiles": "CN1C[C@H](C#N)CC1=O", "relative growth": "inactive: 0.983"}
{"smiles": "O=C(C[C@@H]1CC[C@H]2[C@@H](COC[C@@H](O)CN2S(=O)(=O)c2cccc(Cl)c2)O1)N1CCOCC1", "relative growth": "inactive: 0.992"}
